Assay results reported in the supplement of paper PMC9938546.
Where a name gives a salt, the structure may show the parent alone. Some of the results follow. Many values rest on one well or one pass, so single values are uncertain.

tested on: HCT116-GFP; test: HCT116-GFP viability (GFP intensity) relative to untreated control, monoculture; higher = less cancer cell killing; settings: culture: HCT116-GFP monoculture; 10 µM; 72 h
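Note: viability estimated indirectly by image-based GFP quantification with live-cell imaging of the constitutively GFP-expressing human colorectal cancer line, no immune cells added.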

SMILES | HCT116-GFP viability [%]
CC(=O)N(CC(O)CN(C(C)=O)c1c(I)c(C(=O)NCC(O)CO)c(I)c(C(=O)NCC(O)CO)c1I)c1c(I)c(C(=O)NCC(O)CO)c(I)c(C(=O)NCC(O)CO)c1I (stereo not drawn) [Iodixanol] | 94.6
COc1c(N2CCNC(C)C2)c(F)cc2c(=O)c(C(=O)O)cn(C3CC3)c12 (stereo not drawn) [Gatifloxacin] | 93.2
O=C(c1ccccc1)c1ccc2n1CCC2C(=O)O (stereo not drawn) [Ketorolac tromethamine] | 103
CCOC(=O)[C@@](C)(N)Cc1ccc(O)c(O)c1 [Methyldopate hydrochloride] | 48.5
CN1Cc2c(N)cccc2C(c2ccccc2)C1 (stereo not drawn) [Nomifensine maleate] | 107
CC(C)(O)c1ccccc1CC[C@@H](SCC1(CC(=O)O)CC1)c1cccc(/C=C/c2ccc3ccc(Cl)cc3n2)c1 [Montelukast] | 91.2
c1ccc(CNc2ncnc3nc[nH]c23)cc1 [Aminopurine, 6-benzyl] | 93.9
NC1CCN(c2nc3c(cc2F)c(=O)c(C(=O)O)cn3-c2ccc(F)cc2F)C1 (stereo not drawn) [Tosufloxacin hydrochloride] | 65.6
COC(=O)Nc1nc2cc([S+]([O-])c3ccccc3)ccc2[nH]1 (stereo not drawn) [Oxfendazol] | 55.9
Nc1ccn([C@@H]2CS[C@H](CO)O2)c(=O)n1 [Lamivudine] | 93.3
Cc1cc(N)c2ccccc2[n+]1CCCCCCCCCC[n+]1c(C)cc(N)c2ccccc21 [Dequalinium dichloride] | 35.2
COc1ccccc1OCC(O)COC(N)=O (stereo not drawn) [Methocarbamol] | 98.1
CO/N=C(\C(=O)N[C@@H]1C(=O)N2C(C(=O)OC(C)OC(C)=O)=C(COC(N)=O)CS[C@H]12)c1ccco1 (stereo partly drawn) [Cefuroxime axetil] | 97.8
COc1ccc(CC2c3cc(OC)c(OC)cc3CC[N+]2(C)CCC(=O)OCCCCCOC(=O)CC[N+]2(C)CCc3cc(OC)c(OC)cc3C2Cc2ccc(OC)c(OC)c2)cc1OC (stereo not drawn) [Atracurium besylate] | 88
CC(=O)[C@H]1CC[C@H]2[C@@H]3CC=C4C[C@@H](O)CC[C@]4(C)[C@H]3CC[C@]12C [Pregnenolone] | 97.2
CCN(CCO)CCCC(C)Nc1ccnc2cc(Cl)ccc12 (stereo not drawn) [Hydroxychloroquine sulfate] | 93.7
CCCCN1CCCCC1C(=O)Nc1c(C)cccc1C (stereo not drawn) [Bupivacaine hydrochloride] | 93.9
CCOC(=O)NNc1nncc2ccccc12 [Todralazine hydrochloride] | 97.1
CC(C)(C)c1ccc(C(O)CCCN2CCC(C(O)(c3ccccc3)c3ccccc3)CC2)cc1 (stereo not drawn) [Terfenadine] | 1.21
CC(COc1ccccc1)NC(C)C(O)c1ccc(O)cc1 (stereo not drawn) [Isoxsuprine hydrochloride] | 114
Nc1ccc(S(=O)(=O)Nc2ccccn2)cc1 [Sulfapyridine] | 110
COc1ccnc(C[S+]([O-])c2nc3cc(OC(F)F)ccc3[nH]2)c1OC (stereo not drawn) [Pantoprazole sodium] | 105
Nc1ccn([C@@H]2O[C@H](CO)[C@@H](O)[C@@H]2O)c(=O)n1 [Cytarabine] | 15.6
C[C@@H]1C[C@H]2[C@@H]3C[C@H](F)C4=CC(=O)C=C[C@]4(C)[C@@]3(F)[C@@H](O)C[C@]2(C)[C@@]1(O)C(=O)COC(=O)C(C)(C)C [Flumethasone pivalate] | 92.3
CCOc1ccccc1OC(c1ccccc1)C1CNCCO1 (stereo not drawn) [Reboxetine mesylate] | 86.4

SMILES | HCT116-GFP viability [%]
CN(C)CCCN1c2ccccc2Sc2ccc(Cl)cc21 [Chlorpromazine hydrochloride] | 20.8
CN(C)c1ccc(O)c2c1C[C@H]1C[C@H]3[C@H](N(C)C)C(O)=C(C(N)=O)C(=O)[C@@]3(O)C(O)=C1C2=O [Minocycline hydrochloride] | 94.8
Cc1ccsc1/C=C/C1=NCCCN1C [Morantel tartrate] | 108
Nc1nc(NC2CC2)c2ncn([C@H]3C=C[C@@H](CO)C3)c2n1 [Abacavir Sulfate] | 84.7
CN(Cc1cnc2nc(N)nc(N)c2n1)c1ccc(C(=O)N[C@@H](CCC(=O)O)C(=O)O)cc1 (racemic) [Amethopterin (R,S)] | 30.8
CN(Cc1cnc2nc(N)nc(N)c2n1)c1ccc(C(=O)N[C@@H](CCC(=O)O)C(=O)O)cc1 [Methotrexate] | 30.2
O=C(COc1ccc(Cl)cc1)N1CCN(Cc2ccc3c(c2)OCO3)CC1 [Fipexide hydrochloride] | 94.3
CNC(C)CCC=C(C)C (stereo not drawn) [Isometheptene mucate] | 96
CCN(CC)CCNc1ccc(CO)c2sc3ccccc3c(=O)c12 [Hycanthone] | 12.8
OC(CCCN1CCCCC1)(c1ccccc1)c1ccccc1 [Diphenidol hydrochloride] | 89.6
CCN(CC)CCOC(=O)C(c1ccccc1)c1ccccc1 [Adiphenine hydrochloride] | 98.3
CCOC(=O)c1ccc(N)cc1 [Benzocaine] | 87.1
C[C@]12CC[C@@H]3c4ccc(OS(=O)(=O)O)cc4CC[C@H]3[C@@H]1CCC2=O [Estropipate] | 103
COc1cccc(OC)c1C(=O)N[C@@H]1C(=O)N2[C@@H]1SC(C)(C)[C@@H]2C(=O)O [Methicillin sodium] | 95.8
Cc1ccc(S(=O)(=O)NC(=O)NN2CCCCCC2)cc1 [Tolazamide] | 101
CCCCC1(COC(=O)CCC(=O)O)C(=O)N(c2ccccc2)N(c2ccccc2)C1=O [Suxibuzone] | 117
COc1cc(NC(C)CCCN)c2ncccc2c1 (stereo not drawn) [Primaquine diphosphate] | 5.59
CCCCNc1c(C(=O)OCC)c(C)nc2c1cnn2CC [Tracazolate hydrochloride] | 89
COc1cc(-c2ccc(=O)[nH]n2)ccc1OC(F)F [Zardaverine] | 108
CSc1ccc2c(c1)N(CCC1CCCCN1C)c1ccccc1S2 (stereo not drawn) [Thioridazine hydrochloride] | 44.6
CC1=C(/C=C/C(C)=C/C=C/C(C)=C\C(=O)O)C(C)(C)CCC1 [Isotretinoin] | 99.7
CC/C(=C(/CC)c1ccc(O)cc1)c1ccc(O)cc1 [Diethylstilbestrol] | 98.6
NC(N)=Nc1nc(CSCC/C(N)=N/S(N)(=O)=O)cs1 [Famotidine] | 100
Cc1cc(-c2ccccc2)nnc1NCCN1CCOCC1 [Minaprine dihydrochloride] | 98
CN(C)[C@@H]1C(O)=C(C(N)=O)C(=O)[C@@]2(O)C(O)=C3C(=O)c4c(O)cccc4[C@@](C)(O)[C@H]3[C@H](O)[C@@H]12 [Oxytetracycline dihydrate] | 95.2

SMILES | HCT116-GFP viability [%]
C[C@@](Cc1ccc(O)c(O)c1)(NN)C(=O)O [Carbidopa] | 89.5
CCOc1nc2cccc(C(=O)O)c2n1Cc1ccc(-c2ccccc2-c2nnn[nH]2)cc1 [Candesartan] | 86.4
Nc1ncnc2c1ncn2[C@@H]1O[C@H](CO)[C@@H](O)[C@@H]1O [Vidarabine] | 107
CC(=O)OC[C@H]1O[C@@H]([S-])[C@H](OC(C)=O)[C@@H](OC(C)=O)[C@@H]1OC(C)=O.CCP(CC)CC.[Au+] [Auranofin] | 1.37
CCC1(c2ccccc2)C(=O)NCNC1=O [Primidone] | 96
O=C1CC[C@@H](C(=O)N2CSC[C@H]2C(=O)O)N1 [Pidotimod] | 102
Oc1c(Cl)cc(Cl)c2cccnc12 [Chloroxine] | 27.2
c1ccc(-c2ccc(C(c3ccccc3)n3ccnc3)cc2)cc1 (stereo not drawn) [Bifonazole] | 80
CN(C)CCC(c1ccc(Br)cc1)c1ccccn1 (stereo not drawn) [Brompheniramine maleate] | 103
CN1CCN(CC(=O)N2c3ccccc3C(=O)Nc3cccnc32)CC1 [Pirenzepine dihydrochloride] | 96.8
COC(=O)Nc1nc2cc(Sc3ccccc3)ccc2[nH]1 [Fenbendazole] | 14
CN(CCCCCCCCCCN(C)C(=O)Oc1cccc([N+](C)(C)C)c1)C(=O)Oc1cccc([N+](C)(C)C)c1 [Demecarium bromide] | 79.6
CC(=O)N(CC(O)CO)c1c(I)c(C(=O)NCC(O)CO)c(I)c(C(=O)NCC(O)CO)c1I (stereo not drawn) [Iohexol] | 101
Cn1c(=O)c2c(ncn2CC2OCCO2)n(C)c1=O [Doxofylline] | 95.1
Cc1cc(O)c(C(=O)N[C@@H](C(=O)N[C@@H]2C(=O)N3C(C(=O)O)=C(CSc4nnnn4C)CS[C@H]23)c2ccc(O)cc2)cn1 [Cefpiramide] | 97.5
CCCNC(=O)NS(=O)(=O)c1ccc(Cl)cc1 [Chlorpropamide] | 93.3
CCN(CC)C(C)CN1c2ccccc2Sc2ccccc21 (stereo not drawn) [Ethopropazine hydrochloride] | 88.3
CC(=O)O[C@]1(C(C)=O)CC[C@H]2[C@@H]3C=C(Cl)C4=CC(=O)CC[C@]4(C)[C@H]3CC[C@@]21C [Chlormadinone acetate] | 85.3
Clc1cccc(Cl)c1NC1=NCCN1 [Clonidine hydrochloride] | 98.3
O=C1[C@H]2CCCC[C@H]2C(=O)N1CCCCN1CCN(c2nsc3ccccc23)CC1 [Perospirone] | 96.8
CO[C@H]1/C=C/O[C@@]2(C)Oc3c(C)c(O)c4c(O)c(c5c(nc6cc(C)ccn65)c4c3C2=O)NC(=O)/C(C)=C\C=C\[C@H](C)[C@H](O)[C@@H](C)[C@@H](O)[C@@H](C)[C@H](OC(C)=O)[C@@H]1C [Rifaximin] | 60.4
Nc1nc2c(ncn2COC(CO)CO)c(=O)[nH]1 [Ganciclovir] | 96.4
CN(C)C(=N)NC(=N)N [Metformin hydrochloride] | 98.2
